In paper PMC12136788:
The list shows a part of the results.

T1: UNK ZnF1-3 (human, UniProt Q9C0B0 31-174)
T1 sequence: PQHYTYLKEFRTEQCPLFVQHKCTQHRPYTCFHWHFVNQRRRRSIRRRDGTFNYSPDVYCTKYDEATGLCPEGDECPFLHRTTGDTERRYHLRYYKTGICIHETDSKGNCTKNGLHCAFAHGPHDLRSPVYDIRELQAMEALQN

B1: chr1:67050029:67050030:-_ENSMUSG00000026000_ENSMUST00000119559|mus_hu|FALSE|FALSE (ssRNA)
RNA: GGGAGUUCUACAGUCCGACGAUCGGAAAGCAACGGAAGCACUUAGCUUGGGUUUGAAUAUACAGAAAGGGUCAUGCAGUGAGUUGCAGGUGGCAUGCUAUCCUUUCAGAGUUCAAAUGCAGGGAACCUGGCUUUUGUGGGGACCAACAGAGGAUUGAGCAUCA
B2: chr3:148802587:148802588:-_ENSG00000071794_ENST00000310053|hu_mus|hu_hu_hu_mus_False|8_78 (ssRNA)
RNA: GGGAGUUCUACAGUCCGACGAUCUCCAACAACUUGUCCUCUCAUAGUUCCAAAUAAAACGGAAUCUUGCUCUUCAUCACUCGUUAGGAAGUCAUCUGGAGGAAUAAUGUCUUGGAAUUCAAAAUGUGGAAAGAAAGUUGAGUACAACAGAGGAUUGAGCAUCA
B3: chr11:4127340:4127341:+_ENSG00000167325_ENST00000300738|hu_mus|hu_hu_hu_mus_False|58_88 (ssRNA)
RNA: GGGAGUUCUACAGUCCGACGAUCGGCAUAGUCAGGGUGCUUCGUGGUCAAGGUUGCGGCUGUCUCAGCAGCCAGGGUAUCUAGUUCCACUGUGGUGACCCCACUAUAUAGGCCUUGGAUUACUUUCAUGGUGAUCUGAGCAGGCAACAGAGGAUUGAGCAUCA
B4: chr1:145441008:145441009:+_ENSG00000117289_ENST00000369317|hu_hu|FALSE|FALSE (ssRNA)
RNA: GGGAGUUCUACAGUCCGACGAUCGCAGGGAUCCACCUCAGUAUAAGUCGGUGGUGGCAUGAACUUGAACUCAGGGGCAUACAUAAAGAUAGGGCUGUCUUGAGAGCCAUCCAUGUCAUCUAGCAGAGGAGUGGUUGGGCUCUCCAACAGAGGAUUGAGCAUCA
B5: 3185149_3185865_1983_CDS_ENSMUSG00000046201_ENSMUST00000076734|mouse|control|control (ssRNA)
RNA: GGGAGUUCUACAGUCCGACGAUCCUUGGAACCAAUUUUAUAGGAUCCUGAACUCAGUUUCUGAAGAGCCCGAAAUGAAUCUUGUCGAUGAACCAUGCAGACAUAUGCACAGCCCCUGGGUGGAAUCAUAUUAAUGGAUUCAAUCAACAGAGGAUUGAGCAUCA
B6: chr11:77336104:77336105:-_ENSG00000074201_ENST00000525064|hu_mus|hu_hu_hu_mus_False|88_98 (ssRNA)
RNA: GGGAGUUCUACAGUCCGACGAUCCUCACACAUUGCUGUGAACAUUGCCUCCAACGCUGACUUAUCACUGGGCACAAAUCGAAAUUCAGAAAUGGGUUCAACAUCAUCAUUGUCUUCCUCAUCUUCAUCAGAGAGAGGUUCUUUCAACAGAGGAUUGAGCAUCA
B7: 53570521_53619045_831_CDS_ENSG00000100523_ENST00000323669|human|control|control (ssRNA)
RNA: GGGAGUUCUACAGUCCGACGAUCCCAAGUGCCGUCAAUAAACCACUGUCCACGCAUUACUGGUAUUUUAUCAGCCUGGUUCCAGUACACCGGGUAGCACUCUCCUUGGGUCACAUCCACCUCGUAGAGGCCGCCCCGCACGCACAACAGAGGAUUGAGCAUCA
B8: chr6:72561926:72561927:-_ENSMUSG00000056429_ENSMUST00000070524|mus_hu|FALSE|FALSE (ssRNA)
RNA: GGGAGUUCUACAGUCCGACGAUCUAAAUAAAGGGAACACAGAAGAACAAUGUCACCAAAGUGCAGGUGCAAAGCCCAAAGCAGCCCCCUACCUCUGCCAGCCCAGACCCGCCACUAAAUUCUAGAGGAGGGUGUCUCUCAGGUCAACAGAGGAUUGAGCAUCA
B9: chr3:149686290:149686291:-_ENSG00000070087_ENST00000452853|perfect_dup|motif|central (ssRNA)
RNA: GGGAGUUCUACAGUCCGACGAUCGCCAAGAGUCAAACCGUUGGUAAAGAAACCUUCCCGGUCUUUUCCUACAAUCAUAUCGGUUUCGGUUGGCGUAAUGCUCUGAAAGACGCCCCCGGCCGUGGCUGCCCAGACGUAUUUGGCCAACAGAGGAUUGAGCAUCA
B10: chr1:169356373:169356374:+_ENSG00000117475_ENST00000367808|hu_hu|FALSE|FALSE (ssRNA)
RNA: GGGAGUUCUACAGUCCGACGAUCGGCAAUCAGUUCUCCCCGGCAGUGAUUGCAGCAAUUGAAAGUUAUAUUUUCAUAUCUAGUAUAGGGAUGAAAUCGUCCAAUAUUUUUCUUUGUAGCAAGUAAGGUGGUUGGUGAAGACUCCAACAGAGGAUUGAGCAUCA
B11: 34927613_34929497_3120_CDS_ENSG00000159140_ENST00000436227|human|control|control (ssRNA)
RNA: GGGAGUUCUACAGUCCGACGAUCCAUUAGCUUUGGCUAUUUCAAGUAAUUGAGCCUUAUCCAAAUCUGUCAGACGUUUGGGUGAUCUGCCUCGUUCAGAAGACCUGGAUCUUUUACGACGGAUGGGAGAUCUGCUAAACCUUCCAACAGAGGAUUGAGCAUCA
B12: chr4:174298412:174298413:+_ENSG00000164105_ENST00000296504|hu_hu|motif|central (ssRNA)
RNA: GGGAGUUCUACAGUCCGACGAUCAUUCUUCACUGAGUAGAUGAAAUAUGUUAAGGUGUCUUUUUCAUUCACUGGAAUAGACCGGAAGUGGCAACCAACUAUCUCAACAAGUUGUGCUUUAUUAAGUCCUGGUCUGGUUGGUAGCAACAGAGGAUUGAGCAUCA
B13: chr7:151048522:151048523:+_ENSG00000013374_ENST00000566856|hu_mus|hu_hu_hu_mus_True|8_88 (ssRNA)
RNA: GGGAGUUCUACAGUCCGACGAUCCUGUUUCUUAUUUAUUACGAUCUUGAUAUAAUUUUCUUGAAAUCCGAAAGUUUCAGCUAUUUGACACCUCAGGUCUCUACCAGUGACAUGCAAGCGGGUCUCCAACAAGUUUUUCUUAUCCAACAGAGGAUUGAGCAUCA
B14: chr3:176740097:176740098:-_ENSG00000177565_ENST00000430069|hu_mus|hu_hu_hu_mus_True|28_28 (ssRNA)
RNA: GGGAGUUCUACAGUCCGACGAUCUGUUUUGUAUACCACAAAAGGAGGCACUUUCAGUAUCUGCAAAAGGUGUUUAGUCCUAAAACAUACUCACCUAGAGGAUAACUAAAACAGAAUAUCUGUUACACUCUAAGACCUACUCCACAACAGAGGAUUGAGCAUCA
B15: 39664085_39664205_5794_3pUTR_ENSG00000078142_ENST00000262039|human|control|control (ssRNA)
RNA: GGGAGUUCUACAGUCCGACGAUCUGGUUUAUUGUUUUAAAUCGCAAUGUUAUACUUAUGUGCAAAAAUAUACUUAAGGUAUAUUAUGGUUGUAGGUUAACAAUUGCAUUGGCAAGAUUCAUUUUUCCUGUAUGUUUUUACUGACAACAGAGGAUUGAGCAUCA
B16: chr15:69561275:69561276:+_ENSG00000138604_ENST00000261858|hu_hu|FALSE|FALSE (ssRNA)
RNA: GGGAGUUCUACAGUCCGACGAUCUUCUUUUAAGUCAUACAGCCCAAUUAAAGAAUACAUAAAGCCAUUUAAAACAAAAGAGCUAGGUGUGGUUGGAUAUUCUUCAUACCAGUCAUGUUUAUUCAUAAACACAGCUUUAACUCCCAACAGAGGAUUGAGCAUCA
B17: chr21:30434530:30434531:-_ENSG00000156261_ENST00000286788|hu_mus|motif|central (ssRNA)
RNA: GGGAGUUCUACAGUCCGACGAUCAUCAUCUACUGCCCUUUCUAUGUCAUCCAUCAGAUUGUCUGUAGAACCUCGAAGAACGGUAGUAGAAAUGGCACCAUCUUCUUUUUCAUGCUUAAAAACAACCACUUGUGUAUCUCCAACCAACAGAGGAUUGAGCAUCA
B18: chr2:160604868:160604869:+_ENSG00000136536_ENST00000409591|perfect_dup|motif|central (ssRNA)
RNA: GGGAGUUCUACAGUCCGACGAUCUGCCUCUGGUUCAGAGCUAUGAUUUUGGCUGAGCGACGACAACCCCCAUCUUCGCCGGAGAAAUCUAAAUCCCUGAGAUGCUUCAGCUGCCCUGCCCUCACUGACGUCAGAGGACGAGGACAACAGAGGAUUGAGCAUCA
B19: chr12:16052864:16052865:+_ENSG00000023734_ENST00000419869|hu_hu|motif|central (ssRNA)
RNA: GGGAGUUCUACAGUCCGACGAUCCCAUAGUCUCAAUGUUCCAUCUUCUGAACCACUGGCAUAGAGUUCUCCAUCAGGACGGAAUCUCACACAGUGAAUAGGACCAAAGUGUCCCUUGUAGGAUUCUAAUUCUUCUCCACUAUUCAACAGAGGAUUGAGCAUCA
B20: chr7:138056749:138056750:+_ENSMUSG00000040268_ENSMUST00000120441|mus_hu|FALSE|FALSE (ssRNA)
RNA: GGGAGUUCUACAGUCCGACGAUCUGUGCAGUUUAUUCUCAUUACAGUGUUCAACCAGUUUGACAUAUAAAGAUAACACACUUUAACAGUAAAUGUUGGGAGGCACACAUAUAUUCCCAUUCUGAAAGAAGACAUGUUAUAUAUCAACAGAGGAUUGAGCAUCA
B21: chr2:31072873:31072874:+_ENSMUSG00000000194_ENSMUST00000056433|mus_mus|FALSE|FALSE (ssRNA)
RNA: GGGAGUUCUACAGUCCGACGAUCCACACGGUGAGUGCUGAGGAGGGGGGCAGGUCAGCAUGUGAGCUCAGGUGGGUGAUGGAAUGUGGGAACAAGGCUGGGGGGUAGGCUAGAAUCUUCCUUUGAGGACCAGCAGCUUGGCAGCAACAGAGGAUUGAGCAUCA
B22: chr14:103542484:103542485:-_ENSMUSG00000033004_ENSMUST00000161008|mus_mus|FALSE|FALSE (ssRNA)
RNA: GGGAGUUCUACAGUCCGACGAUCUUCGACAAGAUGUUGUUGAUGUGAUGGAAGACAUUGCUCUGAUGGAGGAACUGGUGAUCGGACUGCUUGAACUUGAGGCUCCAGCAUCUUAAGGCCAUUUGUUGCAAUGAACUGCCACUACAACAGAGGAUUGAGCAUCA

Target: T1, UNK ZnF1-3
Test: nsRBNS (natural sequence RNA bind-n-seq); RBNS binding buffer (assumed for nsRBNS): 25 mM Tris pH 7.5, 150 mM KCl, 3 mM MgCl2, 0.01% Triton X-100, 500 ug/ml BSA, 20 U/ml SUPERase-In, 4 C; UNK is unkempt and MSI1 is Musashi-1; names of the RNAs are library labels; protein concentration not given here; high values mean tight binding

| Binder | binding signal |
| --- | --- |
| B1 | 1.45 enrichment R |
| B2 | 1.4 enrichment R |
| B3 | 0.861 enrichment R |
| B4 | 1.07 enrichment R |
| B5 | 0.914 enrichment R |
| B6 | 1.06 enrichment R |
| B7 | 0.851 enrichment R |
| B8 | 1.89 enrichment R |
| B9 | 0.88 enrichment R |
| B10 | 1.55 enrichment R |
| B11 | 0.87 enrichment R |
| B12 | 0.917 enrichment R |
| B13 | 0.893 enrichment R |
| B14 | 0.836 enrichment R |
| B15 | 0.431 enrichment R |
| B16 | 0.923 enrichment R |
| B17 | 1.16 enrichment R |
| B18 | 0.586 enrichment R |
| B19 | 0.579 enrichment R |
| B20 | 0.693 enrichment R |
| B21 | 1.78 enrichment R |
| B22 | 0.852 enrichment R |
